Out of some 290,000 compounds screened, about 1,100 (0.38%) were called active. Inconclusive means that the source gave no clear call. Such entries were picked first, then a sample of the others. Calls come from the whole dose curve; as a rule, active = well fitted inhibition curve with a large enough effect; inconclusive = small, poorly fitted or top-dose-only effect, or another doubt; inactive = no such curve, though single readings can be large or run the other way. A potency beside an inconclusive call is a rough fit, not a confirmed value.
What follows are compounds tested against Pyruvate kinase (Leishmania mexicana) (UniProt Q27686) (assay: qHTS Assay for Inhibitors of Leishmania Mexicana Pyruvate Kinase (LmPK)). Conditions: purified LmPK, Kinase-Glo ATP luminescence, 1 h; activity change, negative = inhibition: at 57.5 µM (top of the series) unless noted.
Procedure, shortened: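 Purified LmPK (0.1 nM) converted ADP (0.1 mM) to ATP with PEP (0.5 mM) in imidazole buffer pH 7.2 with KCl and MgCl2, 1 h at room temperature. ATP was read by Kinase-Glo luminescence; data normalized to uninhibited and no-enzyme controls.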
% is set by controls: 0 for no effect and ±100 for the full control effect; potency is the fitted concentration of half-maximal effect; tags give direction and shape of the fitted curve.

Chain of UniProt Q27686 (Q27686 whole entry, looked up): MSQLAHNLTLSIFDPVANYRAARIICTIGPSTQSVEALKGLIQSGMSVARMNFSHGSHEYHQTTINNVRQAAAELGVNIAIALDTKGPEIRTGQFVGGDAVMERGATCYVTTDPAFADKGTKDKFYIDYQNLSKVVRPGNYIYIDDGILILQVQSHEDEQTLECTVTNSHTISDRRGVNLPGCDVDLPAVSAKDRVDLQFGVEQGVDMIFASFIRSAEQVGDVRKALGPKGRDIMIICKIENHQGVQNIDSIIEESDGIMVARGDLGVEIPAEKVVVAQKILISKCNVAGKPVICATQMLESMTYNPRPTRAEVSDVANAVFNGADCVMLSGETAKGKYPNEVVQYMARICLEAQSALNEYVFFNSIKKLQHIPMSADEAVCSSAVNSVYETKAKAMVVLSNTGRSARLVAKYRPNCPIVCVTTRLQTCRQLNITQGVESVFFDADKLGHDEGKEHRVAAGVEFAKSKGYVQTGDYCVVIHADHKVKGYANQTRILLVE

Row | SMILES | Potency | activity change, negative = inhibition
1 | O=S(=O)(Nc1ccc(O)c(NS(=O)(=O)c2ccccc2)c1)c1ccccc1 | active: 0.447 µM | 
2 | Cc1ccc(-c2cnc3ccccc3n2)cc1C | inconclusive: 14.1 µM [falling, partial curve] | 
3 | O=S(=O)(c1ccc(F)cc1)N1CCN(c2nc(-c3ccc(F)cc3)cs2)CC1 |  | inactive: -1.9%
4 | COc1ccc(C(=O)O/N=C(\N)c2ccccc2)cc1 | inconclusive: 3.16 µM [falling, partial curve] | 
5 | Cc1ccc(NCc2n[nH]c(=S)n2-c2ccccc2)cc1Cl | inconclusive: 15.8 µM [falling, partial curve] | 
6 | Cc1ccc(C(=O)O/N=C(\N)c2ccccc2)c(Cl)c1 | active: 4.47 µM | 
7 | CN1C(=O)/C(=C\c2cc(N=Nc3ccccc3)ccc2O)SC1=S | inconclusive: 12.6 µM [falling, partial curve] | 
8 | S=c1[nH]nc(Cc2cccs2)n1-c1ccccc1 | inconclusive: 10 µM [falling, partial curve] | 
9 | C=CCn1c(-c2cc(OC)cc(OC)c2)n[nH]c1=S | inconclusive: 28.2 µM [falling, partial curve] | 
10 | O=C(Nc1ccccc1C(=O)N/N=C/c1ccco1)c1ccccc1 | inconclusive: 15.8 µM [falling, partial curve] | 
11 | O=C(NCCc1ccccc1)c1ccc2c(c1)OCCCO2 | inconclusive: 20 µM [falling, single point] | 
12 | C/C(=N/NC(=O)c1cccs1)c1ccco1 | inconclusive: 22.4 µM [falling, single point] | 
13 | COc1ccccc1-c1nc(-c2cccc(C)c2)no1 | inconclusive: 22.4 µM [falling, single point] | 
14 | O=C(Nc1cccc(Cl)c1)c1cc(N=Nc2ccc([N+](=O)[O-])cc2Cl)ccc1O | active: 14.1 µM | 
15 | Oc1ccc(CCNc2c3ccccc3nc3ccccc23)cc1O | inconclusive: 2.51 µM [falling, full curve] | 
16 | Cc1c(Cc2ccccc2)c(=O)oc2c(C)c(OCC(=O)N[C@@H](Cc3ccccc3)C(=O)O)ccc12 |  | inactive: -6.84%
17 | Nc1cc(C2CCCC2)nn1-c1ccccc1 | active: 14.1 µM | 
18 | Cc1ccc(-n2[nH]c(C)c(/C=N/N3C(=O)c4cccc5cccc(c45)C3=O)c2=O)cc1 | inconclusive: 35.5 µM [falling, single point] | 
19 | CCOc1ccc(-c2n[nH]c(=S)n2Cc2ccccc2)cc1 | inconclusive: 31.6 µM [falling, single point] | 
20 | CC(=O)/C(N=Nc1ccc(C(=O)O)cc1[N+](=O)[O-])=C(\C)O | active: 25.1 µM | 
21 | CCOC(=O)C1=C(C)C/C(=N\NC(=O)c2ccccc2O)CC1 | inconclusive: 22.4 µM [falling, single point] | 
22 | Cc1ccc(N=Nc2c(O)ccc3n[nH]nc23)cc1 | inconclusive: 11.2 µM [falling, partial curve] | 
23 | c1ccc(-c2nnc(-c3ccccn3)s2)nc1 | active: 12.6 µM | 
24 | C/C(=N\OC(=O)c1ccc(C)cc1)c1sc(C)nc1C | inconclusive: 25.1 µM [falling, single point] | 
25 | O=C(CNC(=O)c1cccs1)c1ccc([N+](=O)[O-])cc1 |  | inactive: -0.677%

Row | SMILES | Potency | activity change, negative = inhibition
26 | S=c1[nH]cc(-c2ccccc2)n1-c1cccc(Cl)c1 | inconclusive: 2.82 µM [falling, full curve] | 
27 | S=c1[nH]nc(-c2ccc3ccccc3n2)o1 | inconclusive: 20 µM [falling, partial curve] | 
28 | CCOC(=O)c1cc(-c2ccc(OC)cc2)n(CCC(=O)NC2CCN(Cc3ccccc3)CC2)c1C |  | inactive: -0.958%
29 | CCn1c(-c2ccc(Cl)cc2)n[nH]c1=S | inconclusive: 12.6 µM [falling, partial curve] | 
30 | Cc1ccccc1S(=O)(=O)Cc1ccc(C(=O)N2CCN(c3ccccc3F)CC2)o1 |  | inactive: -1.42%
31 | Cc1cc(C)n2nc(C(=O)Nc3cccc(S(=O)(=O)N(C)c4ccccc4)c3)nc2n1 |  | inactive: 2.06%
32 | Cc1ccc(SC2=C(Sc3ccc(C)cc3)C(=O)c3ccccc3C2=O)cc1 | inconclusive: 8.91 µM [falling, partial curve] | 
33 | COCC(C)OC(=O)c1c(N)n(Cc2ccco2)c2nc3ccccc3nc12 (stereo not given) |  | inactive: 2.12%
34 | O=C(c1ccccc1)n1c(=S)nc2ccccn21 | active: 4.47 µM | 
35 | Cc1cccc(-c2cc3nc4c(c(N5CCOCC5)n3n2)CCCC4)c1 |  | inactive: -8.05%
36 | Oc1c(Br)cc(/C=N/n2c(-c3ccccc3)n[nH]c2=S)cc1Br | active: 17.8 µM | 
37 | N#C/C(=C\c1ccc(C(=O)O)cc1)c1ccccn1 | inconclusive: 28.2 µM [falling, partial curve] | 
38 | Cn1ccc(C(=O)Nc2ccc3c(c2)OCCO3)n1 | inconclusive: 14.1 µM [falling, partial curve] | 
39 | C(=C\c1ccccn1)/c1ccccn1 |  | inactive: -20.5%
40 | O=C(Nc1ccc(OCc2ccccc2)cc1)Nc1ccccc1C(=O)NCCCN1CCOCC1 | active: 14.1 µM | 
41 | COC(=O)c1cccn(CC(=O)c2ccc(Cl)cc2)c1=O |  | inactive: 3.62%
42 | O=C(NC1CCCC1)C(c1ccc(F)cc1)N(C(=O)c1csnn1)c1ccccc1 (stereo not given) |  | inactive: 8.77%
43 | O=C(CCc1ccccc1)N/N=C/c1cc(Br)ccc1O |  | inactive: 1.8%
44 | COc1ccc(N=Nc2c(O)[nH]c(=S)[nH]c2=O)cc1 | inconclusive: 22.4 µM [falling, single point] | 
45 | Cn1nc(C(=O)Nc2ccc3c(c2)OCCO3)cc1C(=O)O | inconclusive: 15.8 µM [falling, partial curve] | 
46 | CCOc1ccc(C(=O)O/N=C(\N)c2ccccn2)cc1 | inconclusive: 3.55 µM [falling, single point] | 
47 | C=CCn1c(-c2c[nH]c3ccccc23)n[nH]c1=S | active: 22.4 µM | 
48 | COc1ccc(-c2n[nH]c(=S)n2-c2ccc3c(c2)OCCO3)cc1OC | inconclusive: 8.91 µM [falling, partial curve] | 
49 | CCOc1ccc(N=Cc2c(O)c3ccccc3oc2=O)cc1 | inconclusive: 10 µM [falling, partial curve] | 
50 | COc1ccc(NC(=O)OC(C)C)cc1 | inconclusive: 15.8 µM [falling, partial curve] | 
